# Data as given in PubChem BioAssay AID588795 (National Center for Advancing Translational Sciences (NCATS), 2011).
# Screen size: about 390,000 compounds; about 1,400 (0.36%) were called active. This list was built around the results that the source calls inconclusive (neither active nor inactive); the mix of calls is not that of the screen. The call rests on the fitted dose curve; in most records, active means well fitted inhibition curve with a large enough effect; inconclusive means small, poorly fitted or top-dose-only effect; inactive means no such curve, though single readings can be large or run the other way. Potencies beside an inconclusive call are fits to weak or partial responses and may not hold up.
# Biological target: Flap endonuclease 1 (Homo sapiens) (UniProt P39748)
# Test: qHTS Assay for the Inhibitors of Human Flap endonuclease 1 (FEN1). Further: nearly all actives have a fitted effect of over 65% in size.
# Conditions: Recombinant FEN1 flap cleavage, fluorescence, 15 min; series mostly up to 114 µM; activity change, negative = inhibition: at the top concentration
# In short: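 In this screen, 50 nM flap DNA substrate was added to 10 nM FEN1 pretreated with compound for 15 min at room temperature; cleavage was followed with reads at 0 and 15 min, and Hill fitting gave concentration–response parameters.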
# On the % scale 0 is the no-effect control and ±100 the full control effect; potency means the concentration at half of the fitted maximal effect; tags describe the fitted curve by direction and shape.
# UniProt P39748, sequence (P39748 whole entry, looked up): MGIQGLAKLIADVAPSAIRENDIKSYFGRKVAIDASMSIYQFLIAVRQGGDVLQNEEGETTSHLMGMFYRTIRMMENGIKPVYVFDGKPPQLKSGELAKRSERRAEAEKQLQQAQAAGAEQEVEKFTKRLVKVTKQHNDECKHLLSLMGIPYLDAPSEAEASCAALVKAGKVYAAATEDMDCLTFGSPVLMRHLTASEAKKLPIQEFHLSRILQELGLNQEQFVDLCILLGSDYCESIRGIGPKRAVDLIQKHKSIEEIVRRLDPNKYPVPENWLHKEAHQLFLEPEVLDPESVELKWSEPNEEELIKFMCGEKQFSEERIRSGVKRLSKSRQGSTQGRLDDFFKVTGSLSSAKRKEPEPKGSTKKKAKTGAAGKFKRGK
SMILES,Potency,"activity change, negative = inhibition"
CCCOc1ccc(N)cc1N,"inconclusive: 50.1 µM [inhibitor, partial curve]",
COc1cc2nc(CCNCc3ccccc3)nc(NC3CCN(C)CC3)c2cc1OC,active: 44.7 µM,
CC1C(=O)C(C)C(c2ccc3c(c2)OCO3)NC1c1ccc2c(c1)OCO2 (stereo not given),"inconclusive: 89.1 µM [inhibitor, single point]",
CC1CCC(C(=O)NC(C(=O)OCC(=O)c2ccc(Br)cc2)C(C)C)CC1 (stereo not given),,inactive: 12.2%
COCCn1c(C)cc(C(=O)COC(=O)c2ccc([N+](=O)[O-])o2)c1C,"inconclusive: 15.8 µM [inhibitor, full curve, poor fit]",
Nn1c(SCC(=O)NC(=O)NCc2ccco2)nnc1-c1ccc(OC(F)F)cc1,,inactive: -8.27%
COCCOC(=O)c1[nH]c2c(c1C)C(=O)CC(c1ccco1)C2 (stereo not given),"inconclusive: 25.1 µM [inhibitor, full curve]",
COCCN(C(=O)c1cc2c(s1)CCC2)c1c(N)n(CC(C)C)c(=O)[nH]c1=O,,inactive: -1.97%
Cc1ccc(NC(=O)c2nc[nH]c2C(=O)N[C@H](C)c2ccccc2)cc1,"inconclusive: 50.1 µM [inhibitor, partial curve, poor fit]",
COc1ccc(-c2cc(-c3ccco3)[nH]c(=O)c2C#N)cc1OC,"inconclusive: 79.4 µM [inhibitor, single point]",
O=C(O)/C=C/c1cn(-c2ccccc2)nc1-c1ccc(-c2ccc([N+](=O)[O-])cc2)o1,"inconclusive: 50.1 µM [inhibitor, partial curve]",
CC(=O)N1c2ccccc2C(C)(c2ccc(C)cc2)CC1(C)C (stereo not given),"inconclusive: 100 µM [inhibitor, single point]",
O=Nc1c(O)ccc2cc(S(=O)(=O)O)ccc12,"inconclusive: 79.4 µM [inhibitor, partial curve, poor fit]",
COc1ccc(/C=N/Nc2ncnc3c2[nH]c2ccc(C)cc23)c(OC)c1OC,"inconclusive: 50.1 µM [inhibitor, partial curve]",
O=c1oc2c3c(ccc2c2ccccc12)OCN(Cc1ccc(Cl)cc1)C3,"inconclusive: 25.1 µM [inhibitor, partial curve, poor fit]",
CCSc1nnc(Nc2ccc(C)cc2)s1,,inactive: -10.3%
COc1ccc(/C=C2/C(=O)N(CC3CCCO3)C(=S)N2C)c(OC)c1 (stereo not given),"inconclusive: 89.1 µM [inhibitor, partial curve, poor fit]",
CC1=Nc2cc(C(=O)N3CCC(C)CC3)ccc2Sc2ccc(Cl)cc21,"inconclusive: 89.1 µM [inhibitor, single point]",
Cc1ccc(=O)n(-c2ccccc2)c1,"inconclusive: 37.7 µM [inhibitor, partial curve, poor fit]",
CCC(=O)OC1(C)C(=O)C=C2C=C(c3ccsc3)OC=C2C1=O (stereo not given),active: 39.8 µM,
CCn1cc(C(=O)NCCCOC)c(=O)c2cc(S(=O)(=O)N3CCc4ccccc4C3)ccc21,,inactive: 2.77%
O=C(Nc1ccccc1Cc1ccccc1)c1ccccc1NS(=O)(=O)c1ccc(Cl)s1,"inconclusive: 79.4 µM [inhibitor, partial curve, poor fit]",

SMILES,Potency,"activity change, negative = inhibition"
Cc1ccccc1NC(=O)CSc1nnc(-c2ccco2)n1N,,inactive: -0.945%
O=C(O)COc1ccccc1/C=N/Nc1ccc(S(=O)(=O)Nc2ccc(Cl)cc2)cc1[N+](=O)[O-],"inconclusive: 50.1 µM [inhibitor, partial curve]",
COc1cc2c(NC3CCN(C)CC3)nc(N3CCCN(C)CC3)nc2cc1OCCCCCN,active: 8.91 µM,
O=C(O)C1CSC(c2ccco2)N1 (stereo not given),"inconclusive: 56.2 µM [inhibitor, partial curve, poor fit]",
O=C(CCCN1C(=O)c2cccc3cccc(c23)C1=O)N1CCc2ccccc2C1,"inconclusive: 44.7 µM [inhibitor, partial curve, poor fit]",
CCCn1nnc(NC(=S)NC(=O)/C=C/c2ccco2)n1,"inconclusive: 56.2 µM [inhibitor, partial curve, poor fit]",
COc1ccc(CC(=O)NCc2nnc(SCC(=O)Nc3ncc(C)s3)n2C)cc1,"inconclusive: 89.1 µM [inhibitor, single point]",
O=C(Cc1ccc(Cl)cc1)Nc1cccc(S(=O)(=O)N2CCCCC2)c1,"inconclusive: 79.4 µM [inhibitor, single point]",
CCCCCCCCCCCCCCCC[n+]1cccc(C(=O)N(CC)CC)c1,"inconclusive: 79.4 µM [inhibitor, single point]",
Cc1ccc(Nc2nc(N)c([N+](=O)[O-])c(NCCO)n2)cc1,"inconclusive: 50.1 µM [inhibitor, partial curve, poor fit]",
COc1ccc(Cn2cc3c(-c4ccc(F)cc4)nnc-3c3cc(OC)c(OC)cc32)cc1,"inconclusive: 10 µM [inhibitor, full curve, poor fit]",
N[C@@H](Cc1cc(I)c(Oc2ccc(O)c(I)c2)c(I)c1)C(=O)O,"inconclusive: 44.7 µM [inhibitor, partial curve]",
CC(C)=CCC1=C(OCC(=O)O)C(=O)c2ccccc2C1=O,"inconclusive: 8.91 µM [inhibitor, full curve]",
Cc1ccc2oc(-c3ccc(NC(=O)CCC(=O)O)cc3)nc2c1,,inactive: 13.3%
COc1cc(/C=N/NC(=O)c2cccc(C(=O)N/N=C/c3ccc(O)c(OC)c3)n2)ccc1O,"inconclusive: 0.708 µM [inhibitor, full curve]",
O=C(N/N=C/c1cccn1-c1ccccc1)c1ccncc1,"inconclusive: 50.1 µM [inhibitor, partial curve, poor fit]",
CC(=O)NN1C(=O)c2ccc(Oc3ccc([N+](=O)[O-])cc3)cc2C1=O,,inactive: -4.08%
O=C(O)/C=C/C(=O)Nc1ccc(O)cc1,"inconclusive: 17.8 µM [inhibitor, partial curve]",
O=C(Nc1ccc(NC(=O)c2cccc([N+](=O)[O-])c2)cc1)c1cccc([N+](=O)[O-])c1,,inactive: 18.4%
COc1cccc(CNc2nnnn2C)c1OC,"inconclusive: 31.6 µM [inhibitor, partial curve, poor fit]",
CC1=NN(c2ccccc2)C(=O)/C1=C\c1ccc(Br)s1,"inconclusive: 14.1 µM [inhibitor, partial curve]",
O=C(N/N=C/c1cccc(F)c1)c1cc(-c2ccco2)nc2ccccc12,"inconclusive: 44.7 µM [inhibitor, partial curve]",

SMILES,Potency,"activity change, negative = inhibition"
CCCCNc1nnc(CCn2nc(C)c(Br)c2C)s1,"inconclusive: 39.8 µM [inhibitor, single point]",
CC(=O)Nc1ccc(SCCN2CCN(CCc3ccccc3)CCC2=O)cc1,"inconclusive: 39.8 µM [inhibitor, partial curve]",
CN(C)c1oc(-c2ccccc2Cl)nc1P(=O)(c1ccccc1)c1ccccc1,"inconclusive: 56.2 µM [inhibitor, partial curve, poor fit]",
COC(=O)c1c(-c2cccs2)csc1NC(=O)c1ccc(C(C)C)cc1,"inconclusive: 89.1 µM [inhibitor, single point]",
O=c1c(Cl)c(N/N=C/c2ccc(Br)cc2)cnn1-c1ccccc1,"inconclusive: 79.4 µM [inhibitor, partial curve, poor fit]",
Cc1cc(C)n2nc(C(=O)N/N=C/c3c4ccccc4cc4ccccc34)nc2n1,active: 44.7 µM,
Cc1ccccc1NP1(=O)OCCCN1Cc1ccccc1Cl (stereo not given),,inactive: 4.02%
O=c1cc(OCc2ccccc2)cc[nH]1,,inactive: -0.128%
COC(=O)c1ccc(NC(=O)CCc2c(C)nn(-c3ccc(N4CCCCC4)nn3)c2C)cc1,,inactive: 11.3%
O=C(N/N=C\c1cccnc1)c1cc(-c2ccc(Cl)s2)[nH]n1,"inconclusive: 35.5 µM [inhibitor, full curve]",
CC1(C)Cc2c(cnn2-c2ccc(F)cc2)C(NC(=O)CCN2CCCC2=O)C1 (stereo not given),"inconclusive: 100 µM [inhibitor, single point]",
O=C(O)c1cccc(N2C(=O)c3ccc4c5c(ccc(c35)C2=O)C(=O)N(c2cccc(C(=O)O)c2)C4=O)c1,"inconclusive: 50.1 µM [inhibitor, partial curve]",
CC1(C)c2ccccc2N2CCC(=O)NC21/C=C/c1ccco1 (stereo not given),,inactive: -1.17%
CCc1ccc(OCC(=O)Nc2ccc(S(=O)(=O)Nc3cc(C)on3)cc2)c(Br)c1,"inconclusive: 89.1 µM [inhibitor, single point]",
Cc1cccc(CN2CCC(CNc3ncnc4onc(-c5ccc(Cl)cc5)c34)CC2)c1,"inconclusive: 39.8 µM [inhibitor, partial curve, poor fit]",
COc1ccccc1Oc1ccc2c(c1)C(=O)N(c1cccc(O)c1)C2=O,"inconclusive: 89.1 µM [inhibitor, partial curve, poor fit]",
Cc1cc(-c2ccc(C)c(S(=O)(=O)NCCCN(Cc3ccccc3)C(C)C)c2)on1,"inconclusive: 39.8 µM [inhibitor, partial curve, poor fit]",
Cc1c(OCC(=O)N[C@H](C(=O)O)c2ccccc2)ccc2c3c(c(=O)oc12)CCCC3,,inactive: -9.51%
CC1=C(C(=O)OC(C)C)C(c2ccc(Cl)cc2)n2c(s/c(=C\c3ccc(OCC(=O)O)cc3)c2=O)=N1 (stereo not given),"inconclusive: 39.8 µM [inhibitor, partial curve, poor fit]",
COc1cc(OC)cc(-c2c(-c3ccsc3)c3cc(Br)ccc3n2C)c1,"inconclusive: 22.4 µM [inhibitor, full curve]",
COc1ccc(NC(=O)CN(C)C(=O)c2cn(-c3ccccc3)nc2-c2ccc(F)cc2)cc1,"inconclusive: 39.8 µM [inhibitor, partial curve, poor fit]",
